# The list shows a part of the results.
# B1: PX9961X-pdi-531-24-531 (Parabacteroides distasonis) (protein)
# chain: DLTEEIHSSVIAENYYNNAGEVMAAMMRPWGHFCGTMQVAQSPWSCNELSSDCAAWPQKGRHGYDNGDWIRLHRHQWIPTDGQVVDAWKKLFEGIGYANNFLTDTENIDFEALQVPMSKAQAQAEMRVYRAYCYWYVMDMFGTAPICEKIGEINPSSKSRAELFAWIEKELNESIPSLSESKTETYGRVSKWGAYALLARLYLNAEIYTGQARWDDCIAACDELAKGGFALDKKWNDTFRADNDKRSTEIIWSIVYDEVYAKGMGWYQRWLHYAHQTGWDLQSGPWNGLVTQPTFYDSFADNDLRKIEGFLIGKQYPRKVDENGNYYYDTTAEPLKGSEEYNGQDLVFVNYIKSMTEGEENSGARSIKYEIQPGTTGDMNNDWVMFRYSEVIYNKAEALMRKNGGKATQEVVDMINSVRQRSFKAEDWEKAKYTTATLTMDEFLAEKGREFAFEGIRRTDLVRFNKFVTTSWWDKTASNEPKRNIFPIPQRQLDANANLSPNEANSLF
# Assays:
# Assay in all cases: glycan array binding signal (z-score within array); higher = stronger binding
# Details in all cases: glycan notation: IUPAC condensed, linker removed
# [1] = target: GlcNAc(b1-2)[GlcNAc(b1-4)]Man(a1-3)[GlcNAc(b1-4)][GlcNAc(b1-2)[GlcNAc(b1-6)]Man(a1-6)]Man(b1-4)GlcNAc(b1-4)GlcNAc
# Outline: (§1)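 The Consortium for Functional Glycomics database supplied 3228 glycan arrays, of which those lacking an available protein sequence were dropped. The binding signal, a within-array Z-score, was averaged across arrays of the same protein sequence and across linkers. Negative scores can be read as non-binding.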
# [2] = target: GlcNAc(b1-2)[GlcNAc(b1-4)]Man(a1-3)[GlcNAc(b1-4)][GlcNAc(b1-2)[GlcNAc(b1-6)]Man(a1-6)]Man(b1-4)GlcNAc(b1-4)[Fuc(a1-6)]GlcNAc
# Outline: as §1
# [3] = target: GlcNAc(b1-2)[GlcNAc(b1-6)]Man(a1-6)[GlcNAc(b1-2)Man(a1-3)]Man(b1-4)GlcNAc(b1-4)GlcNAc
# Outline: as §1
# [4] = target: GlcNAc(b1-2)[GlcNAc(b1-6)]Man(a1-6)[GlcNAc(b1-2)Man(a1-3)]Man(b1-4)GlcNAc(b1-4)[Fuc(a1-6)]GlcNAc
# Outline: as §1
# [5] = target: GlcNAc(b1-2)[GlcNAc(b1-6)]Man(a1-6)[GlcNAc(b1-4)][GlcNAc(b1-2)Man(a1-3)]Man(b1-4)GlcNAc(b1-4)GlcNAc
# Outline: as §1
# GlcNAc(b1-3)Fuc = target: GlcNAc(b1-3)Fuc
# Outline: as §1
# GlcNAc(b1-3)Gal = target: GlcNAc(b1-3)Gal
# Outline: as §1
# [6] = target: GlcNAc(b1-3)Gal(b1-3)GalNAc
# Outline: as §1
# GlcNAc(b1-3)Gal(b1-4)Glc = target: GlcNAc(b1-3)Gal(b1-4)Glc
# Outline: as §1
# [7] = target: GlcNAc(b1-3)Gal(b1-4)GlcNAc
# Outline: as §1
# [8] = target: GlcNAc(b1-3)Gal(b1-4)GlcNAc(b1-2)Man(a1-3)[GlcNAc(b1-3)Gal(b1-4)GlcNAc(b1-2)Man(a1-6)]Man(b1-4)GlcNAc(b1-4)GlcNAc
# Outline: as §1
# [9] = target: GlcNAc(b1-3)Gal(b1-4)GlcNAc(b1-2)Man(a1-3)[GlcNAc(b1-3)Gal(b1-4)GlcNAc(b1-2)Man(a1-6)]Man(b1-4)GlcNAc(b1-4)[Fuc(a1-6)]GlcNAc
# Outline: as §1
# [10] = target: GlcNAc(b1-3)Gal(b1-4)GlcNAc(b1-2)[GlcNAc(b1-3)Gal(b1-4)GlcNAc(b1-6)]Man(a1-6)[GlcNAc(b1-3)Gal(b1-4)GlcNAc(b1-2)Man(a1-3)]Man(b1-4)GlcNAc(b1-4)GlcNAc
# Outline: as §1
# [11] = target: GlcNAc(b1-3)Gal(b1-4)GlcNAc(b1-3)Gal(b1-4)GlcNAc
# Outline: as §1
# [12] = target: GlcNAc(b1-3)Gal(b1-4)GlcNAc(b1-3)Gal(b1-4)GlcNAc(b1-2)Man(a1-3)[GlcNAc(b1-3)Gal(b1-4)GlcNAc(b1-3)Gal(b1-4)GlcNAc(b1-2)Man(a1-6)]Man(b1-4)GlcNAc(b1-4)GlcNAc
# Outline: as §1
# [13] = target: GlcNAc(b1-3)Gal(b1-4)GlcNAc(b1-3)Gal(b1-4)GlcNAc(b1-2)Man(a1-3)[GlcNAc(b1-3)Gal(b1-4)GlcNAc(b1-3)Gal(b1-4)GlcNAc(b1-2)Man(a1-6)]Man(b1-4)GlcNAc(b1-4)[Fuc(a1-6)]GlcNAc
# Outline: as §1
# [14] = target: GlcNAc(b1-3)Gal(b1-4)GlcNAc(b1-3)Gal(b1-4)GlcNAc(b1-2)[GlcNAc(b1-3)Gal(b1-4)GlcNAc(b1-3)Gal(b1-4)GlcNAc(b1-6)]Man(a1-6)[GlcNAc(b1-3)Gal(b1-4)GlcNAc(b1-3)Gal(b1-4)GlcNAc(b1-2)Man(a1-3)]Man(b1-4)GlcNAc(b1-4)[Fuc(a1-6)]GlcNAc
# Outline: as §1
# [15] = target: GlcNAc(b1-3)Gal(b1-4)GlcNAc(b1-3)Gal(b1-4)GlcNAc(b1-3)Gal(b1-4)GlcNAc(b1-2)Man(a1-3)[GlcNAc(b1-3)Gal(b1-4)GlcNAc(b1-3)Gal(b1-4)GlcNAc(b1-3)Gal(b1-4)GlcNAc(b1-2)Man(a1-6)]Man(b1-4)GlcNAc(b1-4)GlcNAc
# Outline: as §1
# [16] = target: GlcNAc(b1-3)Gal(b1-4)GlcNAc(b1-3)Gal(b1-4)GlcNAc(b1-3)Gal(b1-4)GlcNAc(b1-2)Man(a1-3)[GlcNAc(b1-3)Gal(b1-4)GlcNAc(b1-3)Gal(b1-4)GlcNAc(b1-3)Gal(b1-4)GlcNAc(b1-2)Man(a1-6)]Man(b1-4)GlcNAc(b1-4)[Fuc(a1-6)]GlcNAc
# Outline: as §1
# [17] = target: GlcNAc(b1-3)Gal(b1-4)GlcNAc(b1-3)Gal(b1-4)GlcNAc(b1-3)Gal(b1-4)GlcNAc(b1-2)[GlcNAc(b1-3)Gal(b1-4)GlcNAc(b1-3)Gal(b1-4)GlcNAc(b1-3)Gal(b1-4)GlcNAc(b1-6)]Man(a1-6)[GlcNAc(b1-3)Gal(b1-4)GlcNAc(b1-3)Gal(b1-4)GlcNAc(b1-3)Gal(b1-4)GlcNAc(b1-2)Man(a1-3)]Man(b1-4)GlcNAc(b1-4)[Fuc(a1-6)]GlcNAc
# Outline: as §1
# [18] = target: GlcNAc(b1-3)Gal(b1-4)GlcNAc(b1-3)Gal(b1-4)GlcNAc(b1-3)Gal(b1-4)GlcNAc(b1-3)Gal(b1-4)GlcNAc(b1-2)Man(a1-3)[GlcNAc(b1-3)Gal(b1-4)GlcNAc(b1-3)Gal(b1-4)GlcNAc(b1-3)Gal(b1-4)GlcNAc(b1-3)Gal(b1-4)GlcNAc(b1-2)Man(a1-6)]Man(b1-4)GlcNAc(b1-4)GlcNAc
# Outline: as §1
# [19] = target: GlcNAc(b1-3)Gal(b1-4)GlcNAc(b1-3)Gal(b1-4)GlcNAc(b1-3)Gal(b1-4)GlcNAc(b1-3)Gal(b1-4)GlcNAc(b1-2)Man(a1-3)[GlcNAc(b1-3)Gal(b1-4)GlcNAc(b1-3)Gal(b1-4)GlcNAc(b1-3)Gal(b1-4)GlcNAc(b1-3)Gal(b1-4)GlcNAc(b1-2)Man(a1-6)]Man(b1-4)GlcNAc(b1-4)[Fuc(a1-6)]GlcNAc
# Outline: as §1
# [20] = target: GlcNAc(b1-3)Gal(b1-4)GlcNAc(b1-3)Gal(b1-4)GlcNAc(b1-3)Gal(b1-4)GlcNAc(b1-3)Gal(b1-4)GlcNAc(b1-2)[GlcNAc(b1-3)Gal(b1-4)GlcNAc(b1-3)Gal(b1-4)GlcNAc(b1-3)Gal(b1-4)GlcNAc(b1-3)Gal(b1-4)GlcNAc(b1-6)]Man(a1-6)[GlcNAc(b1-3)Gal(b1-4)GlcNAc(b1-3)Gal(b1-4)GlcNAc(b1-3)Gal(b1-4)GlcNAc(b1-3)Gal(b1-4)GlcNAc(b1-2)Man(a1-3)]Man(b1-4)GlcNAc(b1-4)[Fuc(a1-6)]GlcNAc
# Outline: as §1
# [21] = target: GlcNAc(b1-3)Gal(b1-4)GlcNAc(b1-3)Gal(b1-4)GlcNAc(b1-3)GalNAc
# Outline: as §1
# [22] = target: GlcNAc(b1-3)Gal(b1-4)GlcNAc(b1-3)GalNAc
# Outline: as §1
# [23] = target: GlcNAc(b1-3)Gal(b1-4)GlcNAc(b1-3)[GlcNAc(b1-3)Gal(b1-4)GlcNAc(b1-3)]GalNAc
# Outline: as §1
# [24] = target: GlcNAc(b1-3)Gal(b1-4)GlcNAc(b1-6)[Gal(b1-3)]GalNAc
# Outline: as §1
# [25] = target: GlcNAc(b1-3)Gal(b1-4)GlcNAc(b1-6)[GlcNAc(b1-3)Gal(b1-3)]GalNAc
# Outline: as §1
# [26] = target: GlcNAc(b1-3)Gal(b1-4)GlcNAc(b1-6)[GlcNAc(b1-3)]Gal(b1-4)GlcNAc
# Outline: as §1
# GlcNAc(b1-3)GalNAc = target: GlcNAc(b1-3)GalNAc
# Outline: as §1
# GlcNAc(b1-3)Man = target: GlcNAc(b1-3)Man
# Outline: as §1
# [27] = target: GlcNAc(b1-3)[GlcNAc(b1-4)][GlcNAc(b1-6)]GlcNAc
# Outline: as §1
# [28] = target: GlcNAc(b1-3)[GlcNAc(b1-6)]Gal(b1-4)GlcNAc
# Outline: as §1
# [29] = target: GlcNAc(b1-3)[GlcNAc(b1-6)]GalNAc
# Outline: as §1
# [30] = target: GlcNAc(b1-4)Gal(b1-4)GlcNAc
# Outline: as §1
# GlcNAc(b1-4)GlcNAc = target: GlcNAc(b1-4)GlcNAc
# Outline: as §1
# [31] = target: GlcNAc(b1-4)GlcNAc(b1-4)GlcNAc
# Outline: as §1
# [32] = target: GlcNAc(b1-4)GlcNAc(b1-4)GlcNAc(b1-4)GlcNAc(b1-4)GlcNAc
# Outline: as §1
binder,measurement,setting,value
B1,glycan array binding signal (z-score),[1],-0.025
same,glycan array binding signal (z-score),[2],-0.384
same,glycan array binding signal (z-score),[3],-0.219
same,glycan array binding signal (z-score),[4],-0.189
same,glycan array binding signal (z-score),[5],-0.984
same,glycan array binding signal (z-score),GlcNAc(b1-3)Fuc,-0.239
same,glycan array binding signal (z-score),GlcNAc(b1-3)Gal,0.313
same,glycan array binding signal (z-score),[6],-0.037
same,glycan array binding signal (z-score),GlcNAc(b1-3)Gal(b1-4)Glc,-0.353
same,glycan array binding signal (z-score),[7],-0.269
same,glycan array binding signal (z-score),[8],-0.046
same,glycan array binding signal (z-score),[9],0.501
same,glycan array binding signal (z-score),[10],1.39
same,glycan array binding signal (z-score),[11],-0.862
same,glycan array binding signal (z-score),[12],-0.089
same,glycan array binding signal (z-score),[13],0.078
same,glycan array binding signal (z-score),[14],0.985
same,glycan array binding signal (z-score),[15],1.35
same,glycan array binding signal (z-score),[16],0.723
same,glycan array binding signal (z-score),[17],0.524
same,glycan array binding signal (z-score),[18],0.007
same,glycan array binding signal (z-score),[19],0.179
same,glycan array binding signal (z-score),[20],0.964
same,glycan array binding signal (z-score),[21],0.188
same,glycan array binding signal (z-score),[22],-0.7
same,glycan array binding signal (z-score),[23],0.378
same,glycan array binding signal (z-score),[24],0.081
same,glycan array binding signal (z-score),[25],0.02
same,glycan array binding signal (z-score),[26],-0.581
same,glycan array binding signal (z-score),GlcNAc(b1-3)GalNAc,-0.942
same,glycan array binding signal (z-score),GlcNAc(b1-3)Man,0.442
same,glycan array binding signal (z-score),[27],-0.298
same,glycan array binding signal (z-score),[28],-0.559
same,glycan array binding signal (z-score),[29],0.533
same,glycan array binding signal (z-score),[30],-0.694
same,glycan array binding signal (z-score),GlcNAc(b1-4)GlcNAc,-0.388
same,glycan array binding signal (z-score),[31],0.152
same,glycan array binding signal (z-score),[32],-0.74

# From the supplement of paper PMC8728848
